# Measurements: the supplement of paper PMC4604168 (melanoma cell lines)
# The list shows a part of the results. Most values come without repeats; read them as rough.
# Test system: COLO792
# Test: cell count relative to DMSO control; melanoma cells; higher = more viable cells
# Conditions: library dose: low library concentration; 72 h
# 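Note: cell number obtained by counting DAPI-stained nuclei in high-throughput microscope images with image analysis software, screen run in 1,536-well plates.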
row,SMILES,cell count
1,"COc1cc(Nc2ncc(F)c(Nc3ccc4c(n3)NC(=O)C(C)(C)O4)n2)cc(OC)c1OC [Tamatinib] + COC(=O)c1sccc1S(=O)(=O)Nc1ccc(Nc2ccccc2)cc1OC [GSK0660] (first compound 0.4 µM, partner dose 1 µM)",47.3%
2,"O=C(O)c1ccc(-c2c[nH]c3ncc(-c4ccccc4)cc23)cc1C1CCCC1 + O=C(O)C(=O)Nc1sc2c(c1C(=O)O)CCNC2 [TCS401] (first compound 0.16 µM, partner dose 1.66667 µM)",95%
3,"C[C@@H]1CCN(C(=O)CC#N)C[C@@H]1N(C)c1ncnc2[nH]ccc12 + N#Cc1c(O)c2c(-c3ccc(-c4ccccc4O)cc3)csc2[nH]c1=O [A769662] (first compound 1 µM, partner dose 2 µM)",96.4%
4,"C[C@@H]1CCN(C(=O)CC#N)C[C@@H]1N(C)c1ncnc2[nH]ccc12 + CC(C)CCN1c2nc(Nc3cc(F)c(O)c(F)c3)ncc2N(C)C(=O)C1C [BID1870] (first compound 1 µM, partner dose 0.2 µM)",88.1%
5,"C[C@@H]1CCN(C(=O)CC#N)C[C@@H]1N(C)c1ncnc2[nH]ccc12 + O=c1cc(-c2cccc3c2Sc2ccccc2S3)oc(N2CCOCC2)c1 [KU55933] (first compound 1 µM, partner dose 1 µM)",94.3%
6,"O=C(O)c1ccc(-c2c[nH]c3ncc(-c4ccccc4)cc23)cc1C1CCCC1 + O=C1NC(=O)/C(=C/c2ccc(-c3ccc(F)cc3O)o2)S1 [AS252424] (first compound 0.16 µM, partner dose 1 µM)",99.2%
7,"O=C(O)c1ccc(-c2c[nH]c3ncc(-c4ccccc4)cc23)cc1C1CCCC1 + CCN(CC)CCCCNc1ncc2cc(-c3cc(OC)cc(OC)c3)c(NC(=O)NC(C)(C)C)nc2n1 [PD173074] (first compound 0.16 µM, partner dose 0.1 µM)",88.5%
8,"O=c1[nH]nc(Sc2ncc([N+](=O)[O-])s2)n1-c1ccc2c(c1)OCCO2 + CN1CCN(c2ccc3nc(-c4c(N)c5c(F)cccc5[nH]c4=O)[nH]c3c2)CC1 [Dovitinib] (first compound 0.2 µM, partner dose 0.1 µM)",95.3%
9,"COc1cc(Nc2ncc(F)c(Nc3ccc4c(n3)NC(=O)C(C)(C)O4)n2)cc(OC)c1OC [Tamatinib] + COc1ccc(-c2ccc3c(N4CCOCC4)nc(N4C[C@@H](C)O[C@@H](C)C4)nc3n2)cc1CO [KU0063794] (first compound 0.4 µM, partner dose 0.02 µM)",43.6%
10,"O=c1[nH]nc(Sc2ncc([N+](=O)[O-])s2)n1-c1ccc2c(c1)OCCO2 + CCCS(=O)(=O)Nc1ccc(F)c(C(=O)c2c[nH]c3ncc(Cl)cc23)c1F [PLX4720] (first compound 0.2 µM, partner dose 0.08 µM)",102%
11,"O=c1[nH]nc(Sc2ncc([N+](=O)[O-])s2)n1-c1ccc2c(c1)OCCO2 + COc1ccc(Cl)c(Nc2nc3ccccc3nc2NS(=O)(=O)c2cccc(NC(=O)C(C)(C)N)c2)c1 [XL147] (first compound 0.2 µM, partner dose 0.8 µM)",99.1%
12,"C[C@@H]1CCN(C(=O)CC#N)C[C@@H]1N(C)c1ncnc2[nH]ccc12 + COc1ccc2c(c1)CCC1C2CCC2(C)C(NCCCCCCN3C(=O)C=CC3=O)CCC12 [U73122] (first compound 1 µM, partner dose 0.4 µM)",94.8%
13,"CC1(C)NC(=O)N(c2ccc([N+](=O)[O-])c(C(F)(F)F)c2)C1=O [nilutamide] + c1cc(-c2cnn3cc(-c4ccc(OCCN5CCCCC5)cc4)cnc23)ccn1 [Dorsomorphin] (first compound 1 µM, partner dose 0.4 µM)",96.7%
14,"O=c1[nH]nc(Sc2ncc([N+](=O)[O-])s2)n1-c1ccc2c(c1)OCCO2 + C=CCNC1=C2C[C@@H](C)C[C@H](OC)[C@H](O)[C@@H](C)/C=C(\C)[C@H](OC(N)=O)[C@@H](OC)/C=C\C=C(/C)C(=O)NC(=CC1=O)C2=O [Tanespimycin] (first compound 0.2 µM, partner dose 0.002 µM)",99%
15,"O=C(Nc1cccc(Cl)c1)Nc1ncc(CCNc2ncnc3ccsc23)s1 + COc1cc(N2CCC(N3CCN(C)CC3)CC2)ccc1Nc1ncc(Cl)c(Nc2ccccc2S(=O)(=O)C(C)C)n1 [NVP-TAE684] (first compound 0.0008 µM, partner dose 0.08 µM)",88.8%
